Assay results reported in PMC4447371.
These are yes or no findings as the source states them, for the method shown. In cells and extracts the contact can be indirect. Some entries that bind do so weakly or less than the wild type.

By UniProt entry, the sequences of proteins in these tests, tags left out. Where a name states a change or a piece, a line headed by the entry shows the natural chain unless it says otherwise. Chains listed by the source or under a name are the forms on record and can include a tag or linker. Residues count along the entry.
UniProt Q804S5: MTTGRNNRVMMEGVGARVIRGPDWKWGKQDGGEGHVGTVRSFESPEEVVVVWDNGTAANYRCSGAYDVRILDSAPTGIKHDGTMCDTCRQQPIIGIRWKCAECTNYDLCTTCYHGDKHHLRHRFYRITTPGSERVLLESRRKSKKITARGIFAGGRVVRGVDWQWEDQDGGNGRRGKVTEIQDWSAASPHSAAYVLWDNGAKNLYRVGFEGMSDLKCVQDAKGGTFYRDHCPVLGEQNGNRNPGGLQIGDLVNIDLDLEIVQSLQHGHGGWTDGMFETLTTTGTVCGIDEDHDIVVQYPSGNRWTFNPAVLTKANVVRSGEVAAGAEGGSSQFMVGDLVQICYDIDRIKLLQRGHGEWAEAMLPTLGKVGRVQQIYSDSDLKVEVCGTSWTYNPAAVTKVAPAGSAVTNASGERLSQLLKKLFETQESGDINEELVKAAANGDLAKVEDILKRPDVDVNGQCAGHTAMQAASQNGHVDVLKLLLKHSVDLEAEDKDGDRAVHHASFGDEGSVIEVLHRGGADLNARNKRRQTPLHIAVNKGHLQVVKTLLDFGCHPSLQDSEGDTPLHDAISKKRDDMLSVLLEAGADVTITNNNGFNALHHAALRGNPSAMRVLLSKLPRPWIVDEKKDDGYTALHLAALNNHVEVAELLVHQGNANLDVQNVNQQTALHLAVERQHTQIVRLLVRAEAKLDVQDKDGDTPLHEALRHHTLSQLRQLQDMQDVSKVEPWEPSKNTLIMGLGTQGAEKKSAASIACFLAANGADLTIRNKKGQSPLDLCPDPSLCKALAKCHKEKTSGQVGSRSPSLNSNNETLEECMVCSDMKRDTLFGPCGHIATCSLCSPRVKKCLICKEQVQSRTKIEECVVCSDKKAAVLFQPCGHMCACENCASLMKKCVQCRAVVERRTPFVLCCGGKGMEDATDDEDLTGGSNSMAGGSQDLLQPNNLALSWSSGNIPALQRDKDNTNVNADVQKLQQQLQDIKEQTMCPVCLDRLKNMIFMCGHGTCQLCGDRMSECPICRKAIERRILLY
UniProt Q8UWJ4: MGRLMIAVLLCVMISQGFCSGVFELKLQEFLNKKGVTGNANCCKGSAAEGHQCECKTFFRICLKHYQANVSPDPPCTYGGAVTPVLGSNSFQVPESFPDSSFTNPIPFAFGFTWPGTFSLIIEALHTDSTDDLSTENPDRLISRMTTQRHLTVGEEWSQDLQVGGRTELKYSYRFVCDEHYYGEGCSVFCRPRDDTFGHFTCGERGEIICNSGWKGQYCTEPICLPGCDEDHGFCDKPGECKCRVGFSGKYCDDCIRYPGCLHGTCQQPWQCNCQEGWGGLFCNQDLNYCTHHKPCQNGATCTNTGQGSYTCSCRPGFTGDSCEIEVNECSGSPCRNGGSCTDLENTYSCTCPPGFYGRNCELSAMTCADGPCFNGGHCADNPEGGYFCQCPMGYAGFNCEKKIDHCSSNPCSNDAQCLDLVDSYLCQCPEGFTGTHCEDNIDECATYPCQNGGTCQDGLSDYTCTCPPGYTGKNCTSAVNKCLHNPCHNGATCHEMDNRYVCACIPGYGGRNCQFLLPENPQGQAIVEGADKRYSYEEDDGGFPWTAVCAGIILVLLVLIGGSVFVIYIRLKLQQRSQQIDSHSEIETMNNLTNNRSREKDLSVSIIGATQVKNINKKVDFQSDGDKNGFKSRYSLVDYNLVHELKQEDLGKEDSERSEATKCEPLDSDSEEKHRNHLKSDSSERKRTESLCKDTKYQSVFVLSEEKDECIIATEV
full-length DeltaD: residues 20-717 of Q8UWJ4
DeltaD ∆D (with terminal amino acids 694 to 717 deleted): residues 20-693 of Q8UWJ4
DeltaD ∆C-D (with aa 626 to 717 deleted): residues 20-625 of Q8UWJ4
DeltaD ∆B-D (with aa 584 to 717 deleted): residues 20-583 of Q8UWJ4
DeltaD-NN/KK (N591A / N592A / K614A / N615A / N617A / K618A / K619A) (Q8UWJ4, form named): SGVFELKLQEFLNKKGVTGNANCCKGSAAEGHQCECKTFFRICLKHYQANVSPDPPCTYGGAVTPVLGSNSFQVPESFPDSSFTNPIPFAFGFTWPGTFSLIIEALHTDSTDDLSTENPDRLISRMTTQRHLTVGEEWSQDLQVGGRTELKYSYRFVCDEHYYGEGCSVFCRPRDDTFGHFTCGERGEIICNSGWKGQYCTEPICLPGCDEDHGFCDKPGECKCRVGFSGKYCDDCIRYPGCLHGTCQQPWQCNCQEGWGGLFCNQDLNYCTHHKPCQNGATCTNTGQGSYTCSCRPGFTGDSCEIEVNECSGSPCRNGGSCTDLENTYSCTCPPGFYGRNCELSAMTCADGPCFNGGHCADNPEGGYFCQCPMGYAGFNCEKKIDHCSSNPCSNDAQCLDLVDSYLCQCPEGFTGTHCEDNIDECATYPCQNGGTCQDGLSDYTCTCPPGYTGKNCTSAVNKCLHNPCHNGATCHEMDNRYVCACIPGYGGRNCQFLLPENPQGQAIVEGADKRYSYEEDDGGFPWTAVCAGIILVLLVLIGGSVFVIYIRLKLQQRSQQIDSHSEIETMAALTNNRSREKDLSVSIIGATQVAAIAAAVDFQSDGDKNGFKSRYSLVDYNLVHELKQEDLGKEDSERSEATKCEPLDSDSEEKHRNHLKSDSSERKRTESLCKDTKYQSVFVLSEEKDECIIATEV
DeltaD ∆C-HA (C domain, aa 626–694, deleted) (Q8UWJ4, form named): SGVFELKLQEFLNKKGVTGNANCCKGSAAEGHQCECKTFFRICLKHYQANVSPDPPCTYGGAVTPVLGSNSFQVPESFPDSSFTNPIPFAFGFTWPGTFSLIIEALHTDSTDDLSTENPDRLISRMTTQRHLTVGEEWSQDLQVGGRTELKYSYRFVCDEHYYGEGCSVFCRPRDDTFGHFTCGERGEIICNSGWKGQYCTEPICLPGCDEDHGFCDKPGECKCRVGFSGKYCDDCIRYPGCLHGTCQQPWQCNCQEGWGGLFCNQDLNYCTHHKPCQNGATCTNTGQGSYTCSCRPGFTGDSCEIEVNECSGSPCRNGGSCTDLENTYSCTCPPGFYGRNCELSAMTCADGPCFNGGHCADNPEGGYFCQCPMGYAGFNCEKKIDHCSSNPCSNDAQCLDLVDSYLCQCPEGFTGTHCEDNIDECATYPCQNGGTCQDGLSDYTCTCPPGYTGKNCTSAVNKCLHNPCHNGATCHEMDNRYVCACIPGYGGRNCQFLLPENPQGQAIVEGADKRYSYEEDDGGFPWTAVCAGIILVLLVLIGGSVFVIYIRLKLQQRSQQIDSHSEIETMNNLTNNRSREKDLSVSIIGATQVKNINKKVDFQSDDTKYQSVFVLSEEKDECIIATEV
DeltaD-NN (N591A / N592A) (Q8UWJ4, form named): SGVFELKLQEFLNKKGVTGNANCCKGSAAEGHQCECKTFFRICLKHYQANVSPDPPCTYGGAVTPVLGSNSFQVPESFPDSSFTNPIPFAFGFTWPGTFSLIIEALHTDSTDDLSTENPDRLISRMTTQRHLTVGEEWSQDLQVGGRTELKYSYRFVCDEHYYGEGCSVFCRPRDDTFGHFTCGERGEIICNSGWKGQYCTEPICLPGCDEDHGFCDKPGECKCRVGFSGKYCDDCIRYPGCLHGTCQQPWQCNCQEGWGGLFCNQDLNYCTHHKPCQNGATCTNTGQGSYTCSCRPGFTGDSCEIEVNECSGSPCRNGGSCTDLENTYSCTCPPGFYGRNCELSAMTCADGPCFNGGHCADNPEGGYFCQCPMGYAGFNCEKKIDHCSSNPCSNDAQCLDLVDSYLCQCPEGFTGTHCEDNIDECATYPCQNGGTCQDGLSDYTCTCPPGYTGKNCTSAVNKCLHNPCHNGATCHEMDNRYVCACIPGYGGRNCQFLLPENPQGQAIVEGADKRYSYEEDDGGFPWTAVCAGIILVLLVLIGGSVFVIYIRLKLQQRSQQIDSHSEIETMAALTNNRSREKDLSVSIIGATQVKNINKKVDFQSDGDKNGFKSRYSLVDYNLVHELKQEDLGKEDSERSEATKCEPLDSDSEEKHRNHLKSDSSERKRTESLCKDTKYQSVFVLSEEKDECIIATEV
DeltaD ∆A-HA (A domain, aa 573–584, deleted) (Q8UWJ4, form named): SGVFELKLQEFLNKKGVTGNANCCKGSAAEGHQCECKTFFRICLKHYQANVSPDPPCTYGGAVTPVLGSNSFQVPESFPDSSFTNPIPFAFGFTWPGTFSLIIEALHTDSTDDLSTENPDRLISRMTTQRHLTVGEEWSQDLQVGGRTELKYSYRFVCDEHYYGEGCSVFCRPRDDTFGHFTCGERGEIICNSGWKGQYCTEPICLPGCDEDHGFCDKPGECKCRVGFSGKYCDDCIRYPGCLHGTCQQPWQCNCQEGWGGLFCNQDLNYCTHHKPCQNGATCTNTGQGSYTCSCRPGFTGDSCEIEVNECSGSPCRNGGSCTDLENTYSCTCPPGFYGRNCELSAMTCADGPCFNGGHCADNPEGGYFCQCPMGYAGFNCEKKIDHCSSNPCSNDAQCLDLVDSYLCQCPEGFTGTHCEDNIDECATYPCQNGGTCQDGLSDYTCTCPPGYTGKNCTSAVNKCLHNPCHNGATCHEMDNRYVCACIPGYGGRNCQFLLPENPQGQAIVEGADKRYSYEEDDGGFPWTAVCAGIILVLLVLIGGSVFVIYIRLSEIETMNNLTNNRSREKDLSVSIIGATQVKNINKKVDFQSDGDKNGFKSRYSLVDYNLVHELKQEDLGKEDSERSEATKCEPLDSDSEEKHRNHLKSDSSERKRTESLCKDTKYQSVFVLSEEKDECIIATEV

Experiments:
[1] = biological target: Myc-Mib1 (Mind bomb1, RING E3 ligase) (zebrafish) (UniProt Q804S5); experiment: co-IP; COS 7 or HEK293T cells co-transfected with HA-tagged DeltaD forms with or without Myc-Mib1; Myc-Mib1 precipitated with anti-Myc, DeltaD detected with anti-HA; modified RIPA buffer, 4C
[2] = biological target: DeltaD ∆B-D (with aa 584 to 717 deleted) (zebrafish) (UniProt Q8UWJ4); experiment: co-IP; HEK293T cells co-transfected with untagged DeltaD forms and Myc-Mib1; DeltaD precipitated with zdd2 antibody, Mib1 detected with anti-Myc; modified RIPA buffer (50mM Tris-HCL pH7.4, 150mM NaCl, 1% NP-40, 0.25% sodium deoxycholate), 4C
[3] = biological target: DeltaD ∆C-D (with aa 626 to 717 deleted) (zebrafish) (UniProt Q8UWJ4); experiment: as above
[4] = biological target: DeltaD ∆D (with terminal amino acids 694 to 717 deleted) (zebrafish) (UniProt Q8UWJ4); experiment: as above
[5] = biological target: full-length DeltaD (zebrafish) (UniProt Q8UWJ4); experiment: as above

Substance: DeltaD-NN/KK (N591A / N592A / K614A / N615A / N617A / K618A / K619A) (from UniProt Q8UWJ4 20-717) (ligand)
- binding [1]: no binding

Substance: DeltaD-HA (HA-tagged full length DeltaD) (from UniProt Q8UWJ4 20-717) (ligand)
- binding [1]: binds

Substance: DeltaD ∆C-HA (C domain, aa 626–694, deleted) (from UniProt Q8UWJ4 20-717) (ligand)
- binding [1]: binds

Substance: DeltaD-NN (N591A / N592A) (from UniProt Q8UWJ4 20-717) (ligand)
- binding [1]: binds

Substance: DeltaD ∆D-HA (D domain, 694–717, deleted) (from UniProt Q8UWJ4 20-693) (domain or fragment)
- binding [1]: binds

Substance: Myc-Mib1 (Mind bomb1, RING E3 ligase) (from UniProt Q804S5 1-1030) (enzyme)
- binding [2]: no binding
- binding [3]: binds
- binding [4]: binds
- binding [5]: binds

Substance: DeltaD ∆A-HA (A domain, aa 573–584, deleted) (from UniProt Q8UWJ4 20-717) (ligand)
- binding [1]: binds weakly
